{"source": "PubChem BioAssay AID1345082", "about": "(National Center for Advancing Translational Sciences (NCATS), 2018)", "note": "Several values for one entry are separate records, joined by “and”; a condition that tells them apart may be missing. Equal values may be shown once. Among all 94,000 compounds or so, about 4,000 (4.3%) were called active. The inconclusive results got no clear call from the source; some entries with a clear call stand among them for comparison. Calls come from the whole dose curve; as a rule, active = well fitted inhibition curve with a large enough effect; inconclusive = small, poorly fitted or top-dose-only effect; inactive = no such curve, though single readings can be large or run the other way. A potency beside an inconclusive call is a rough fit, not a confirmed value. % is set by controls: 0 for no effect and ±100 for the full control effect; potency is the fitted concentration of half-maximal effect; tags give direction and shape of the fitted curve.", "data": [{"test": "Cytotoxic Profiling in NIH 3T3 Cell Line of Diverse Libraries Using Quantitative High-Throughput Screening; note: nearly all actives have a fitted effect of over 55% in size", "details": "NIH 3T3 viability, CellTiter-Glo ATP luminescence, 48-72 h; activity change, negative = cytotoxicity: at 96.7 µM (top of the series) unless noted; series mostly up to 96.7 µM", "outline": "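Cytotoxicity was measured by CellTiter-Glo ATP luminescence after 48 or 72 h compound exposure at 37 °C. Mouse NIH 3T3 fibroblasts were seeded at 400 cells/well and dosed by 23 nL pin transfer.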", "values": [{"smiles": "O=C(NCCc1cccnc1)c1cccc2c1CCN2C(=O)Nc1ccc(F)cc1", "activity change, negative = cytotoxicity": "inactive: -28.4%"}, {"smiles": "Cn1ccc(NC(=O)C2(C)CN(Cc3ccccc3)Cc3ccc(N4CCOCC4)nc32)n1", "note": "(configuration not stated)", "Potency": "inconclusive: 44.7 µM [inhibitor, partial curve, poor fit]"}, {"smiles": "O=C(NCc1ccc(Cl)cc1)c1ccc2cncn2c1", "Potency": "inconclusive: 50.1 µM [inhibitor, partial curve, poor fit]"}, {"smiles": "COc1ccc(NC(=O)Cn2c(=O)n(-c3ccccc3)c(=O)c3c2cc(C)n3C)cc1", "Potency": "inconclusive: 50.1 µM [inhibitor, single point]"}, {"smiles": "CCc1nc2c(c(-c3ccc(Cl)cc3)n1)CCN([S+](=O)([O-])c1cccc(C(F)(F)F)c1)CC2", "Potency": "inconclusive: 44.7 µM [inhibitor, partial curve, poor fit]"}, {"smiles": "c1cc(-c2n[nH]c(CC3CCNC3)n2)ccn1", "note": "(configuration not stated)", "activity change, negative = cytotoxicity": "inactive: 2.33%"}, {"smiles": "COc1ccccc1-c1ccc(C(=O)N2CCC(C(=O)N3CCC(Cc4ccccc4)CC3)CC2)cc1", "Potency": "active: 22.4 µM"}, {"smiles": "COc1ccccc1Nc1ccnc(N2CCCC(C(=O)NCc3ccc(F)c(F)c3)C2)n1", "note": "(configuration not stated)", "Potency": "active: 12.6 µM"}, {"smiles": "Cc1ccc(C(=O)N2CCN(c3cc(-c4ccccc4)[nH]n3)CC2)cc1", "Potency": "inconclusive: 44.7 µM [inhibitor, partial curve, poor fit]"}, {"smiles": "Cc1ccccc1-c1nc(N2CCOCC2)cc2c1CN(Cc1cnn(C)c1)C2=O", "Potency": "inconclusive: 112 µM [inhibitor, partial curve, poor fit]"}, {"smiles": "Cc1cc(=O)[nH]c(CCNC(=O)c2ccc(C)c(N3CCNC3=O)c2)n1", "Potency": "inconclusive: 20 µM [inhibitor, full curve]"}, {"smiles": "COc1ccc(-c2cnc3[nH]cc(CC(=O)N4CCN(c5ccccn5)CC4)c3c2)cc1", "Potency": "inconclusive: 25.1 µM [inhibitor, full curve, poor fit]"}, {"smiles": "CC(C)C(=O)N1CCC2(CC1)CC(N(Cc1ccc(F)cc1)C1CC1)CCO2", "note": "(configuration not stated)", "activity change, negative = cytotoxicity": "inactive: -24%"}, {"smiles": "O=C(COc1ccccc1)N1CCC2(CC1)NC(=O)N(c1cccc(F)c1)N2", "Potency": "inconclusive: 28.2 µM [inhibitor, partial curve, poor fit]"}, {"smiles": "Cc1cccc(OCC(=O)N2CCCC(c3noc(COc4ccccc4F)n3)C2)c1", "note": "(configuration not stated)", "Potency": "inconclusive: 50.1 µM [inhibitor, partial curve, poor fit]"}, {"smiles": "COc1ccc(-c2cc3nc4c(c(=O)n3[nH]2)CN(C(=O)Cc2ccc(NC(C)=O)cc2)CC4)cc1", "Potency": "inconclusive: 44.7 µM [inhibitor, partial curve, poor fit]"}, {"smiles": "CN(C)CCN(C)C(=O)c1ccc2c(c1)NC(C)(CCCCc1ccccc1)CO2", "note": "(configuration not stated)", "Potency": "active: 31.6 µM"}, {"smiles": "CC(NC(=O)c1cc2n(n1)CC(c1ccc(Cl)cc1)OC2)c1ccccc1", "note": "(configuration not stated)", "Potency": "inconclusive: 50.1 µM [inhibitor, partial curve, poor fit]"}, {"smiles": "COc1cccc(NC(=O)O[C@@H]2CC[C@]3(C)[C@H](CC[C@H]4OC(=O)C[C@H]43)[C@]2(C)CO)c1", "activity change, negative = cytotoxicity": "inactive: -25.3% [at 174 µM]"}, {"smiles": "CN(C)C[C@@H]1CN(Cc2ccccc2)C[C@H]1NS(=O)(=O)c1cccnc1", "activity change, negative = cytotoxicity": "inactive: -6.81%"}, {"smiles": "CCCCn1c(=O)c(C(=O)NCc2ccccc2)nc2cccnc21", "Potency": "inconclusive: 50.1 µM [inhibitor, partial curve, poor fit]"}, {"smiles": "O=C(Nc1ccccc1)c1cnc2n1CCN(Cc1cccc(OC(F)(F)F)c1)CC2", "Potency": "inconclusive: 56.2 µM [inhibitor, partial curve, poor fit]"}, {"smiles": "CCOC(=O)C1CCCN(C(=O)c2ccc3oc(-c4ccccn4)nc3c2)C1", "note": "(configuration not stated)", "activity change, negative = cytotoxicity": "inactive: -25.6%"}, {"smiles": "CCOc1ccc(C(=O)N2CCC(c3n[nH]c(=O)n3Cc3ccc(OC)cc3)CC2)cc1", "activity change, negative = cytotoxicity": "inactive: -7.43%"}, {"smiles": "COc1ncccc1-c1cnc2[nH]cc(CC(=O)Nc3ccccn3)c2c1", "Potency": "inconclusive: 44.7 µM [inhibitor, partial curve]"}, {"smiles": "Cc1noc(C)c1CC(=O)N1CCc2nnc([C@@H]3C[C@@H](O)CN3C(C)C)n2CC1", "activity change, negative = cytotoxicity": "inactive: 2.51%"}, {"smiles": "CCOc1ccc(NC(=O)[C@@H]2C[C@@H](O)CN2C2CCN(C(=O)c3cccc(OC)c3)CC2)cc1", "activity change, negative = cytotoxicity": "inactive: -16.3%"}, {"smiles": "Cc1ncccc1C(=O)N1CCC(Oc2cnc3c(ccn3-c3cncnc3)c2)CC1", "Potency": "active: 70.8 µM"}, {"smiles": "CCCNC(=O)c1cccc2c1CCN2S(=O)(=O)c1cccc(C)c1", "Potency": "inconclusive: 44.7 µM [inhibitor, partial curve, poor fit]"}, {"smiles": "CCC(CC)C(=O)N1CC2=CC(C)(C)COc3ccc(OC)c(c32)C1", "Potency": "inconclusive: 39.8 µM [inhibitor, partial curve]"}, {"smiles": "O=C(Cc1ccccn1)NC1CCN(Cc2cccc(-c3ccc(F)c(F)c3)c2)CC1", "Potency": "inconclusive: 44.7 µM [inhibitor, partial curve, poor fit]"}, {"smiles": "O=C(NCc1ccc(C(F)(F)F)cc1)C1CN(c2ccc(Cl)cc2)C(=O)N1", "note": "(configuration not stated)", "Potency": "inconclusive: 39.8 µM [inhibitor, partial curve, poor fit]"}, {"smiles": "COc1ccc(CN2Cc3cc(NC(=O)c4cc(OC)cc(OC)c4)ccc3OC(C)C2=O)cc1", "note": "(configuration not stated)", "Potency": "inconclusive: 15.8 µM [inhibitor, full curve]"}, {"smiles": "O=C(NCc1cccc(F)c1)N1CCC(Oc2ncccc2C(=O)N2CCOCC2)C1", "note": "(configuration not stated)", "outcome": "inactive"}, {"smiles": "O=C(NC1CCCc2c1[nH]c1ccc(Cl)cc21)c1ccco1", "note": "(configuration not stated)", "Potency": "inconclusive: 44.7 µM [inhibitor, partial curve, poor fit]"}, {"smiles": "COc1cccc(CCC(=O)N2CCC3(CC2)NC(=O)N(c2cccc(F)c2)N3)c1", "Potency": "inconclusive: 25.1 µM [inhibitor, partial curve, poor fit]"}, {"smiles": "COc1ccc(F)cc1-c1cccc(C(=O)NCCNC(=O)NC2CCCC2)c1", "Potency": "inconclusive: 50.1 µM [inhibitor, partial curve, poor fit]"}, {"smiles": "O=C(Nc1cccc(C(F)(F)F)c1)c1nc2c(o1)CCN(Cc1ccccc1F)CC2", "Potency": "active: 50.1 µM"}, {"smiles": "CC(=O)N1CC2(Cc3ccccc31)CN(C(=O)Cc1cccc(Cl)c1)C2", "Potency": "inconclusive: 50.1 µM [inhibitor, partial curve, poor fit]"}, {"smiles": "Cc1ccc(-n2nc(-c3c(C)nc4scc(CC(=O)NCC(C)C)n4c3=O)cc2C)c(C)c1", "Potency": "inconclusive: 50.1 µM [inhibitor, partial curve, poor fit]"}, {"smiles": "CC(C)CN1C[C@H](COCc2ccccc2)Oc2ccncc2[S+]1(=O)[O-]", "Potency": "inconclusive: 31.6 µM [inhibitor, partial curve, poor fit]"}, {"smiles": "Cc1nc(CCC(=O)N(C)CC2CCN(CCc3cccc(F)c3)CC2)n[nH]1", "activity change, negative = cytotoxicity": "inactive: 4.75%"}, {"smiles": "CCCN(C)C(=O)CC1Sc2ncccc2N(CCC)C1=O", "note": "(configuration not stated)", "activity change, negative = cytotoxicity": "inactive: -19.1%"}, {"smiles": "O=C(NCCc1ccccc1F)C1CCc2nnc(CN[S+](=O)([O-])c3ccccc3Cl)n21", "note": "(configuration not stated)", "activity change, negative = cytotoxicity": "inactive: -23.4%"}, {"smiles": "O=C(Cc1c[nH]c2ncc(-c3ccncc3)cc12)N1CCOCC1", "Potency": "inconclusive: 39.8 µM [inhibitor, partial curve, poor fit]"}, {"smiles": "COc1ccc(NC(=O)c2cc3n(n2)CC(c2ccc(Cl)cc2)OC3)cc1Cl", "note": "(configuration not stated)", "Potency": "inconclusive: 44.7 µM [inhibitor, partial curve, poor fit]"}, {"smiles": "c1csc(-c2nc3ccncc3[nH]2)c1", "Potency": "inconclusive: 50.1 µM [inhibitor, partial curve, poor fit] and active: 100 µM"}, {"smiles": "Cc1nc(CN2C(=O)OC3(CCN(C(=O)c4ccnn4C)CC3)C2(C)c2ccccc2)cs1", "note": "(configuration not stated)", "Potency": "active: 31.6 µM"}, {"smiles": "CC(NC(=O)c1ccc(OC2CCN(S(=O)(=O)N(C)C)CC2)cc1)c1cccs1", "note": "(configuration not stated)", "Potency": "inconclusive: 50.1 µM [inhibitor, partial curve, poor fit]"}, {"smiles": "COc1ccc(C(=O)N[C@@H]2CN(C(=O)NC3CCCCC3)CCC[C@H]2O)cc1", "Potency": "inconclusive: 112 µM [inhibitor, single point]"}, {"smiles": "CC(C)N1CCC[C@H]1c1nc(-c2ccc(OC3CCCCC3)nc2)no1", "Potency": "inconclusive: 100 µM [inhibitor, partial curve, poor fit]"}, {"smiles": "Cc1noc2c(-c3cn[nH]c3)cc(-c3ccccc3)nc12", "Potency": "inconclusive: 22.4 µM [inhibitor, full curve, poor fit]"}, {"smiles": "c1ccc(C2(c3ccccc3)CCCN(Cc3cscn3)C2)cc1", "Potency": "inconclusive: 79.4 µM [inhibitor, single point]"}, {"smiles": "O=C(NCc1ccc2c(c1)OCO2)c1cnc2c(c1)N(C(=O)CCc1ccccc1)CCC2", "Potency": "inconclusive: 70.8 µM [inhibitor, single point]"}, {"smiles": "Cn1c(CNC(=O)c2cc3c(s2)CN(C2CC2)C3)nc2ccccc21", "Potency": "inconclusive: 70.8 µM [inhibitor, partial curve, poor fit]"}, {"smiles": "COc1ccc(CNC(=O)N2CCC(CCOc3ccccc3OC)C2)cc1", "note": "(configuration not stated)", "Potency": "inconclusive: 50.1 µM [inhibitor, partial curve, poor fit]"}, {"smiles": "COc1ccc(CCNC(=O)c2nc3sccn3c2-c2ccc(OC)cc2)cc1", "Potency": "inconclusive: 50.1 µM [inhibitor, partial curve, poor fit]"}, {"smiles": "CC(CCn1cccn1)NC(=O)c1csc2nc(-c3ccc(C(F)(F)F)cc3)cn12", "note": "(configuration not stated)", "Potency": "inconclusive: 39.8 µM [inhibitor, partial curve, poor fit]"}, {"smiles": "CC1=C[C@@H](CNC(=O)C(C)(C)C)[C@H](C(C)C)C[C@H]1Cc1nnc(-c2ccncc2)o1", "activity change, negative = cytotoxicity": "inactive: -19.7% [at 174 µM]"}, {"smiles": "COc1cccc(CNC(=O)CCC2CCN(C(=O)c3ccccc3)CC2)c1OC", "activity change, negative = cytotoxicity": "inactive: -9.03%"}, {"smiles": "COCCO[C@H]1C(=O)N(C2CCN(C(=O)COc3ccccc3)CC2)[C@H]1c1ccncc1", "activity change, negative = cytotoxicity": "inactive: -15.4%"}, {"smiles": "COc1ccc(-c2noc(-c3cccn3CC(=O)N3CCC(C)CC3)n2)cc1F", "Potency": "inconclusive: 35.5 µM [inhibitor, partial curve, poor fit]"}]}]}
